The whole screen tested about 310,000 compounds, of which about 14,000 (4.5%) showed an effect of 50% or more. Effects have a minus sign here. The list shows a part of the results.
These molecules were tested against human ether-à-go-go-related gene (hERG) potassium channel (human, UniProt Q12809) (assay: primary screen, population patch clamp on CHO cells stably expressing hERG).
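Also: peak tail current of the secondary pulse compared with the same well before compound.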

human ether-à-go-go-related gene (hERG) potassium channel, sequence (Q12809 whole entry, looked up): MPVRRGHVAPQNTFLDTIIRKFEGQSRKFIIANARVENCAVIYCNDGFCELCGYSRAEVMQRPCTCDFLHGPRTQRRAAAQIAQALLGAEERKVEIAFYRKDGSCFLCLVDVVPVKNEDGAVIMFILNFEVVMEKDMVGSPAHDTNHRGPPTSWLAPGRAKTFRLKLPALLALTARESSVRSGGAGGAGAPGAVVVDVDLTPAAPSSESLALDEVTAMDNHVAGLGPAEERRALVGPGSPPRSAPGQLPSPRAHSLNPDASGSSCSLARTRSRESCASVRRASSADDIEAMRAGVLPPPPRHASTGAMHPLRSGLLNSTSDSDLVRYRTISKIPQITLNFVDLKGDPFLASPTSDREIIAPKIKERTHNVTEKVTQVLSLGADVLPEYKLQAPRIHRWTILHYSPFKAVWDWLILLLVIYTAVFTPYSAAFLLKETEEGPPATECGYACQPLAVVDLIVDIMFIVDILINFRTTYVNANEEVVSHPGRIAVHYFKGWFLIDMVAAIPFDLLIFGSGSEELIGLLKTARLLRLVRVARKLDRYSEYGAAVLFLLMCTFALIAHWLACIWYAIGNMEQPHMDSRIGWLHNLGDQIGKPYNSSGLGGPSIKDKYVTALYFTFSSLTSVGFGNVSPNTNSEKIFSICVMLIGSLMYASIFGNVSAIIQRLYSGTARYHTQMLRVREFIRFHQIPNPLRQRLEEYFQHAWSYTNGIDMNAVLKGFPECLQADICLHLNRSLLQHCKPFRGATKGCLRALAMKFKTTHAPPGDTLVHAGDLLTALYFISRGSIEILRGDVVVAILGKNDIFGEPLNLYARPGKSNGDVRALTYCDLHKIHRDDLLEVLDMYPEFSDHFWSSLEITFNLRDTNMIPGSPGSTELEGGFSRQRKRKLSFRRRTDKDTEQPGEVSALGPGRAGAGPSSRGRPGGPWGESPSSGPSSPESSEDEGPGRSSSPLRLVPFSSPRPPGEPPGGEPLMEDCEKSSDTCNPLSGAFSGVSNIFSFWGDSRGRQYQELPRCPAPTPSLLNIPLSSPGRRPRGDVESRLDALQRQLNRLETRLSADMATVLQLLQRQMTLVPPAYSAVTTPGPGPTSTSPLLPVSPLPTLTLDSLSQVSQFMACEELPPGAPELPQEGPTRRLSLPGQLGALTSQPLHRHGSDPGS

Row | SMILES | hERG current change (%, negative = inhibition) at 10uM [%]
1 | Cc1nc(-c2coc3cc(O)c(C)cc3c2=O)cs1 | 8.94
2 | O=C(N/N=C/c1cn(-c2ccccc2)nc1-c1cccnc1)c1cccnc1 | -50.3
3 | NC(=O)c1c(NC(=O)CSc2nc(N)cc(=O)[nH]2)sc2c1CCCC2 | 8.02
4 | O=C1CC(c2nc3ccccc3[nH]2)CN1c1cccc(C(F)(F)F)c1 (stereo not drawn) | -31.3
5 | O=C(O)Cc1ccc2[nH]c3ccc(CC(=O)O)cc3c2c1 | 7.37
6 | C=C(C)COc1ccc(-c2nc(N)nc(C)c2-c2ccc(OC)cc2)c(O)c1 | -1.29
7 | CCn1cc(C(=O)NC2CCCCC2)c(=O)c2ccc(C)nc21 | 8.6
8 | O=C1c2[nH]nc(-c3ccccc3O)c2C(c2ccc(F)cc2)N1CC1CCCO1 (stereo not drawn) | 5.4
9 | COc1ccc(-n2nnnc2SCC(=O)c2cc3ccccc3o2)cc1 | -0.612
10 | Cc1ccc(/C=N/N2CCN(C3c4ccccc4-c4ccccc43)CC2)o1 | 5.1
11 | Cc1ccc(NC(=O)Cn2cnc3c(oc4nc5c(cc43)COC(C)(C)C5)c2=O)cc1 | 6.02
12 | O=C(NC1CCCCC1)C1CC(=O)N(c2cccc([N+](=O)[O-])c2)C1 (stereo not drawn) | 7.03
13 | CCNc1nc(-c2cc(C)n(Cc3ccco3)c2C)cs1 | 1.21
14 | CC1(C)Cc2c(sc3c2c(=N)n(Cc2ccco2)c(=O)n3CC(=O)Nc2cccc(Cl)c2)CO1 | 10.6
15 | O=C(NNC(=S)Nc1ccc(F)cc1)[C@H]1C[C@@H]1c1ccccc1 | 10.9
16 | O=C(CCCCCN1C(=O)CCC1=O)Nc1ccc2c(c1)OCO2 | 18.2
17 | CN(CCc1ccccn1)C(=O)c1ccc(OC2CCN(Cc3ccccn3)CC2)cc1 | 4.04
18 | CN(C)c1ccnc(Oc2ccc(F)cc2)c1C#N | -1.84
19 | COc1ccc(NC(=S)N2CCC(NC(=O)c3ccc(F)cc3)CC2)cc1 | -13
20 | COc1cccc(NCc2ccc([N+](=O)[O-])s2)c1 | -51
21 | O=C1CNC(=S)N1CCCn1ccnc1 | -0.318
22 | O=C(CN1C(=O)NC(Cc2c[nH]c3ccccc23)C1=O)NCCc1ccc(F)cc1 (stereo not drawn) | 10.1
23 | Cn1c(=O)oc2cc(S(=O)(=O)N3CCCC(C(=O)Nc4nccs4)C3)ccc21 (stereo not drawn) | -15.4
24 | Cc1cc([N+](=O)[O-])nn1CCCC(=O)Nc1cc(Oc2ccc(F)cc2)cc([N+](=O)[O-])c1 | -7.43

— article PMC4336329 (PLoS ONE, 2015)
